This is an account of results in a collection of fitness landscapes (doi:10.1126/science.1257360).

B1: PhoQ; a variant is named by its letters at X, in order, P23837 (parent)
chain: MKKLLRLFFPLSLRVRFLLATAAVVLVLSLAYGMVALIGYSVSFDKTTFRLLRGESNLFYTLAKWENNKLHVELPENIDKQSPTMTLIYDENGQLLWAQRDVPWLMKMIQPDWLKSNGFHEIEADVNDTSLLLSGDHSIQQQLQEVREDDDDAEMTHSVAVNVYPATSRMPKLTIVVVDTIPVELKSSYMVWSWFIYVLSANLLLVIPLLWVAAWWSLRPIEALAKEVRELEEHNRELLNPATTRELTSLVRNLNRLLKSERERYDKYRTTLTDLTHSLKTPLXXLQXXLRSLRSEKMSVSDAEPVMLEQISRISQQIGYYLHRASMRGGTLLSRELHPVAPLLDNLTSALNKVYQRKGVNISLDISPEISFVGEQNDFVEVMGNVLDNACKYCLEFVEISARQTDEHLYIVVEDDGPGIPLSKREVIFDRGQRVDTLRPGQGVGLAVAREITEQYEGKIVAGESMLGGARMEVIFGRQHSAPKDE

This is one part of the list.

The variants in the test derive from B1. Kind of test: enrichment ratio after two sorts for PhoP signalling (ratio (wild type AVST 3.29)); higher = more functional. The settings on record: with PhoP (E. coli).
Consider ADYA, for which the enrichment ratio was not above 0.25.

As for KGGK, the enrichment ratio was not above 0.25.

Turning to SISW, the enrichment ratio was 10.4.

As for SYHW, the enrichment ratio is not above 0.25.

For PKMM, the enrichment ratio was not above 0.25.

Consider LFSV, for which the enrichment ratio was not above 0.25.

In the case of KMIW, the enrichment ratio is not above 0.25.

For the variant DQKG, the enrichment ratio is not above 0.25.

Turning to AMVW, the enrichment ratio was found to be 11.8.

Take NMTI: the enrichment ratio is not above 0.25.

Consider KNYH, for which the enrichment ratio is not above 0.25.

Turning to DNPG, the enrichment ratio was not above 0.25.

On to TYEE, for which the enrichment ratio was not above 0.25.

As to FWCP, the enrichment ratio was not above 0.25.

With QGRW, the enrichment ratio is not above 0.25.

As to VFKH, the enrichment ratio was not above 0.25.

Turning to KCLN, the enrichment ratio was not above 0.25.

Regarding ISVI, the enrichment ratio is not above 0.25.

Turning to DHFT, the enrichment ratio was not above 0.25.

On to LPED, for which the enrichment ratio is not above 0.25.

As for WVLN, the enrichment ratio is not above 0.25.

For the variant QFAR, the enrichment ratio is not above 0.25.

Consider ILES, for which the enrichment ratio is not above 0.25.

Take YLMA: the enrichment ratio was not above 0.25.

In the case of SRDV, the enrichment ratio was not above 0.25.

For the variant DHMS, the enrichment ratio was not above 0.25.

Regarding DQLN, the enrichment ratio is not above 0.25.

Take GTSC: the enrichment ratio is not above 0.25.

As for WRYA, the enrichment ratio was not above 0.25.

As to AWAA, the enrichment ratio was not above 0.25.

For GQKS, the enrichment ratio was not above 0.25.

With DWVT, the enrichment ratio is not above 0.25.

Take EVAS: the enrichment ratio was not above 0.25.

DTKV: the enrichment ratio is not above 0.25.

WWRP: the enrichment ratio is not above 0.25.

For the variant NVFT, the enrichment ratio was not above 0.25.

Consider PVMR, for which the enrichment ratio is not above 0.25.

In the case of ELDK, the enrichment ratio was not above 0.25.

With SCRY, the enrichment ratio was not above 0.25.

For the variant KKAE, the enrichment ratio was not above 0.25.

As to ACVG, the enrichment ratio turned out to be 4.01.

In the case of FMKY, the enrichment ratio is not above 0.25.

HLFI: the enrichment ratio was not above 0.25.

For the variant WARV, the enrichment ratio is not above 0.25.

As to DNAD, the enrichment ratio is not above 0.25.

Consider GGKG, for which the enrichment ratio is not above 0.25.

As for SLTE, the enrichment ratio was not above 0.25.

Take DRSS: the enrichment ratio was not above 0.25.

For PCPM, the enrichment ratio is not above 0.25.

For ELHR, the enrichment ratio was not above 0.25.

Take TSVS: the enrichment ratio was found to be 6.07.

As for VFFM, the enrichment ratio is not above 0.25.

For TTRI, the enrichment ratio is not above 0.25.

As for WRGC, the enrichment ratio was found to be 0.523.

HPQL: the enrichment ratio is not above 0.25.

With FMCR, the enrichment ratio was not above 0.25.

For KQIW, the enrichment ratio is not above 0.25.

Regarding GDNR, the enrichment ratio is not above 0.25.

For the variant MVNH, the enrichment ratio is not above 0.25.

With VYMM, the enrichment ratio is not above 0.25.

On to LVSQ, for which the enrichment ratio was not above 0.25.

Take KRVD: the enrichment ratio is not above 0.25.

Take FDKF: the enrichment ratio was not above 0.25.

Turning to FLEM, the enrichment ratio is not above 0.25.

With VEIG, the enrichment ratio was not above 0.25.

GDHT: the enrichment ratio is not above 0.25.

As for MEAT, the enrichment ratio was determined as 17.9.

As for YWNM, the enrichment ratio was not above 0.25.

Turning to TYYS, the enrichment ratio was not above 0.25.

Turning to SGFF, the enrichment ratio was not above 0.25.

With VKKR, the enrichment ratio is not above 0.25.

As to WSNG, the enrichment ratio was not above 0.25.

Take RPLN: the enrichment ratio is not above 0.25.

On to WYWM, for which the enrichment ratio was not above 0.25.

For the variant WKFT, the enrichment ratio was not above 0.25.

Consider SPHC, for which the enrichment ratio is not above 0.25.

As to KYAQ, the enrichment ratio is not above 0.25.

Take PAIY: the enrichment ratio is not above 0.25.

On to GGGI, for which the enrichment ratio stood at 3.01.

With YVVP, the enrichment ratio is not above 0.25.

Regarding SKES, the enrichment ratio was not above 0.25.

Regarding KNEA, the enrichment ratio was not above 0.25.

With WSYN, the enrichment ratio was not above 0.25.

Regarding VMLV, the enrichment ratio is not above 0.25.

As to HQYP, the enrichment ratio is not above 0.25.

Consider YFHS, for which the enrichment ratio was not above 0.25.

Consider ITGD, for which the enrichment ratio is not above 0.25.

For QRRN, the enrichment ratio was not above 0.25.

As to SHLA, the enrichment ratio turned out to be 3.56.

CYLR: the enrichment ratio is not above 0.25.

Consider KYVC, for which the enrichment ratio was not above 0.25.

Turning to IWIG, the enrichment ratio is not above 0.25.

Consider KYLS, for which the enrichment ratio was not above 0.25.

EHMQ: the enrichment ratio is not above 0.25.

As to DFGT, the enrichment ratio is not above 0.25.

Turning to CSYF, the enrichment ratio was not above 0.25.

For the variant AQLV, the enrichment ratio came out at 8.82.

Regarding GSHY, the enrichment ratio was not above 0.25.

As for THQL, the enrichment ratio is 5.81.

In the case of VCTW, the enrichment ratio was not above 0.25.

Regarding HHGF, the enrichment ratio is not above 0.25.

As to QDSC, the enrichment ratio is not above 0.25.

With ERFM, the enrichment ratio was not above 0.25.

Regarding KTAQ, the enrichment ratio was not above 0.25.

With AAPT, the enrichment ratio was not above 0.25.

In the case of FFTT, the enrichment ratio is not above 0.25.

With LCNY, the enrichment ratio was not above 0.25.

In the case of YQHN, the enrichment ratio is not above 0.25.

Turning to TQYC, the enrichment ratio was found to be 2.01.

For the variant ETLC, the enrichment ratio was not above 0.25.

NGKG: the enrichment ratio was not above 0.25.

Take EDER: the enrichment ratio was not above 0.25.

Turning to MDEG, the enrichment ratio was not above 0.25.

Consider RAHN, for which the enrichment ratio is not above 0.25.

As to KMDC, the enrichment ratio is not above 0.25.

On to FPDC, for which the enrichment ratio is not above 0.25.

With AWMA, the enrichment ratio was not above 0.25.

As to TNHP, the enrichment ratio is not above 0.25.

As to EDPW, the enrichment ratio is not above 0.25.

Consider QPYY, for which the enrichment ratio is not above 0.25.

FIAC: the enrichment ratio is not above 0.25.

As to PKLD, the enrichment ratio was not above 0.25.

For the variant RSQF, the enrichment ratio was not above 0.25.

Take KQFW: the enrichment ratio was not above 0.25.

Regarding HFTW, the enrichment ratio is not above 0.25.

With TWYK, the enrichment ratio is not above 0.25.

Take NFTV: the enrichment ratio was not above 0.25.

Consider YNAY, for which the enrichment ratio was not above 0.25.

For the variant WPGE, the enrichment ratio was not above 0.25.

Turning to YTHT, the enrichment ratio was not above 0.25.

As for MEGH, the enrichment ratio was 9.36.

Turning to AGWW, the enrichment ratio is not above 0.25.

For the variant IVQR, the enrichment ratio was not above 0.25.

For the variant TLED, the enrichment ratio is not above 0.25.

With VMYK, the enrichment ratio is not above 0.25.

As for WSDR, the enrichment ratio was not above 0.25.

For the variant IMHH, the enrichment ratio was not above 0.25.

For the variant TREL, the enrichment ratio is not above 0.25.

As to EVAD, the enrichment ratio is not above 0.25.

Regarding KCLH, the enrichment ratio was not above 0.25.

LLHI: the enrichment ratio is not above 0.25.

Consider LLHC, for which the enrichment ratio is not above 0.25.

Regarding LSHN, the enrichment ratio is not above 0.25.

On to PKFG, for which the enrichment ratio is not above 0.25.

On to YFAY, for which the enrichment ratio was not above 0.25.

Consider AYDW, for which the enrichment ratio is not above 0.25.

In the case of FQWY, the enrichment ratio is not above 0.25.

Turning to NMTN, the enrichment ratio was not above 0.25.

Turning to DECF, the enrichment ratio is not above 0.25.

For VTMR, the enrichment ratio was not above 0.25.

Regarding THQW, the enrichment ratio was not above 0.25.

In the case of HFRP, the enrichment ratio is not above 0.25.

For the variant KRWP, the enrichment ratio is not above 0.25.
